# Measured values as given in PubChem BioAssay AID485344 (National Center for Advancing Translational Sciences (NCATS), 2010).
# Out of some 340,000 compounds screened, about 6,900 (2%) were called active. No stated cut-off is given here; in the data, active means inhibition above about 30%; inactive means below that, where a call was filed. The list shows a part of the results, in another mix than the full data. Entries without a call were filed so in the source.
# Biological target: D(2) dopamine receptor (Homo sapiens) (UniProt P14416)
# Test: HTS Assay for Allosteric Antagonists of the Human D2 Dopamine Receptor: Primary Screen for Antagonists; further: 0% is about no effect
# Details: HEK293 TREx D2 cells, calcium flux, dopamine EC80; at 10 µM; stronger effect = higher value
# Method in brief: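 Calcium flux kinetic readout in an inducible HEK293 TREx D2 line plated overnight at 30 C. After 180 s compound exposure, an EC80 dopamine challenge follows with another 180 s kinetic read to detect antagonism.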
# UniProt P14416, sequence (P14416 whole entry, looked up): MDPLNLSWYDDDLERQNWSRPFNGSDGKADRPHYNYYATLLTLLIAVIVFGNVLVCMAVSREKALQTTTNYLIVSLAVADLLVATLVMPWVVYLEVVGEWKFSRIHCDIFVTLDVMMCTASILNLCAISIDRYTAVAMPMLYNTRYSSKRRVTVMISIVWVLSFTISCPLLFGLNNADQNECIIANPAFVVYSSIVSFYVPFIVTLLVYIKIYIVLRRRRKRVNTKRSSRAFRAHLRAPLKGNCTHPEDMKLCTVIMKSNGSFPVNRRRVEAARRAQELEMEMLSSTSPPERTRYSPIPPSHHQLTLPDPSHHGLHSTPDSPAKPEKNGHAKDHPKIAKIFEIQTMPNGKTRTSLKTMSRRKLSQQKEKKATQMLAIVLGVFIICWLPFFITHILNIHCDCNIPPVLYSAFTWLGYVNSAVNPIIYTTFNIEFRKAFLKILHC
row,Structure (SMILES),inhibition
1,Cc1ccccc1C(=O)NC1(C(F)(F)F)C(=O)Nc2c1c(=O)[nH]c(=O)n2-c1ccc(F)cc1 (stereo not given),6.41%
2,COc1cccc(Cn2c(CNC(=O)c3cc([N+](=O)[O-])ccc3Cl)nc3cccnc32)c1,-18.3%
3,COc1ccc(OCc2nnc(SCC(=O)Nc3cccc(Cl)c3)o2)cc1,active: 42.7%
4,Cc1ccc(S(=O)(=O)N2CCOCC2)cc1C(=O)OC(C)C(=O)c1ccccc1 (stereo not given),active: 36.6%
5,Cc1noc(/C=C/c2cccs2)c1S(=O)(=O)N1CCC(C(=O)NCc2ccccc2Cl)CC1,3.28%
6,CN(C(=O)Cn1cc(S(=O)(=O)Cc2ccccc2Cl)c2ccccc21)c1ccccc1,12%
7,COc1ccc(-c2nn3c(-c4ccccc4C)nnc3c3ccccc23)cc1,-3.99%
8,Cc1cccc(NC(=O)Nc2nnc(N(C)Cc3ccccc3)s2)c1,10.5%
9,CC(=O)c1ccc(NC(=O)c2sc(-n3nc(C)c(Cc4ccccc4)c3C)nc2C)cc1,0.203%
10,Cc1ccc(Cl)cc1N1CCN(S(=O)(=O)c2ccc3c(c2)CC(C)N3C(=O)C2CCC2)CC1 (stereo not given),-8.52%
11,CCOCCCNc1ncnc2onc(C)c12,-14.4%
12,Cn1c(=O)c2c(ncn2CC(=O)Nc2cccc(Cl)c2Cl)n(C)c1=O,-14.8%
13,COC(=O)c1cccnc1-n1c(=O)c2cccnc2n(CC(=O)Nc2ccc(C)cc2C)c1=O,5.31%
14,O=C(Nc1cc(C(F)(F)F)ccc1Cl)c1cc(-c2ccc3c(c2)OCCO3)on1,-2.33%
15,CC(C)COc1ccccc1C(=O)NC(CO)C(=O)O (stereo not given),active: 42.8%
16,O=C(Nc1ccc(S(=O)(=O)Nc2ncccn2)cc1)c1ccccc1Cl,9.48%
17,Cc1ccc2c(c1)N(C(=O)CCC(=O)NCc1ccccc1Cl)CC(C)O2 (stereo not given),15.5%
18,Cc1ccccc1Nc1nc(-c2cccc(Cl)c2)c2c(n1)-c1ccccc1OC2,10.9%
19,CC(NC(=O)Cn1c(=O)oc2cc(S(=O)(=O)NCc3ccccc3)ccc21)c1ccccc1 (stereo not given),3.71%
20,COc1ccc(NC(=O)CSc2nnc(NC(=O)Nc3ccccc3)s2)cc1OC,16.8%
21,CC(=O)c1ccc(NC(=O)COc2ccccc2-c2nc(-c3cccc(C)c3)no2)cc1,-2.52%
22,COc1ccccc1CNC(=O)CCCn1c(=O)c2ccccc2n(CC(=O)Nc2c(C)cc(C)cc2C)c1=O,8.05%
23,O=C(CSc1nc(=O)n(CCN2CCOCC2)c2c1CCC2)Nc1ccccc1,-1.82%
24,COCCCNC(=O)c1ccc2c(c1)N(Cc1ccccc1)C(=O)c1ccccc1S2,5.88%

row,Structure (SMILES),inhibition
1,CCOC(=O)c1sc(NC(=O)C2c3ccccc3Oc3ccccc32)c(C(=O)OCC)c1C,-3.02%
2,COC(=O)c1cccc(-c2ccc(/C=N/N3C(=O)C4C5C=CC(C6CC56)C4C3=O)o2)c1 (stereo not given),active: 31.9%
3,CCn1cc(C(=O)NCc2ccccc2Cl)c(=O)c2cc(S(=O)(=O)N3CCc4ccccc4C3)ccc21,4.88%
4,COc1ccc(C(=O)Nc2nnc(S(=O)(=O)N(CC(C)C)c3ccc(C)cc3)s2)cc1OC,-0.115%
5,COc1ccccc1Nc1nn2c(=O)c3ccc(C(=O)N4CCCC(C)C4)cc3nc2s1 (stereo not given),-10.6%
6,Cc1ccc(-n2nc(C)c3c(C(=O)NCc4ccccc4)cc(C4CC4)nc32)cc1,-12.1%
7,COc1ccccc1CNS(=O)(=O)c1ccc2c(c1)NC(=O)CC(=O)N2,9.07%
8,Cc1ccc(S(=O)(=O)NCc2nc(-c3cccc(C)c3)no2)cc1,25.2%
9,COc1ccc(C2CC(=O)N(Cc3cccc(F)c3)c3ccccc3S2)cc1 (stereo not given),-1.25%
10,CCOC(=O)c1scc(-c2ccccc2)c1S(=O)(=O)Nc1cc(Cl)c(OC)cc1OC,-1.79%
11,CC1CCc2c(sc(NC(=O)C3c4ccccc4Oc4ccccc43)c2C(=O)OC(C)C)C1 (stereo not given),-13.7%
12,CCOC(=O)c1oc2ccc(S(=O)(=O)n3nc(-c4ccc(Br)cc4)cc3N)cc2c1C,17.3%
13,COc1ccc(CNC(=O)c2c3c(nc4ccccc24)C(=O)N(C2CCCCC2)C3)cc1,-4.03%
14,COC(=O)c1ccc(CSc2nc3c([nH]c4ccccc43)c(=O)n2-c2ccc(OC)cc2)o1,20.2%
15,COc1cccc(CNC(=O)c2nn(-c3ccc(C)cc3)c(=O)c3c2c2ccccc2n3C)c1,20.5%
16,O=C(Cc1ccccc1)NCCc1csc2nc(-c3ccc(Cl)cc3)nn12,7.37%
17,CCOc1ccccc1NC(=O)c1c(NC(=O)c2cccc(C)c2)sc2c1CCC2,4.88%
18,Cc1ccc(-c2cc(C(F)(F)F)n3nc(C(=O)NCC45CC6CC(CC(C6)C4)C5)cc3n2)cc1,14.3%
19,Clc1ccccc1CSc1nc2ccncc2[nH]1,active: 32.3%
20,CCc1cc2c(cc3c(=O)n(CC(=O)NC4CCC(C)CC4)ncn32)s1 (stereo not given),-6.55%
21,COc1cc2nc(NCc3ccc(C)cc3)n3nc(-c4ccccc4)nc3c2cc1OC,10%
22,Cc1ccc(NC(=O)c2ccc(-n3c(C)nnc3C)cc2)cc1F,2.91%
23,CCCCC(=O)Nc1ccc2c(c1)nc(CCN1CCN(c3ccccn3)CC1)n2C,active: 51%
24,CCc1ccccc1NC(=O)C1CCCN(C(=O)c2cnn(-c3ccccc3)c2-n2cccc2)C1 (stereo not given),7.38%

row,Structure (SMILES),inhibition
1,CCOC(=O)c1c(-c2ccc(C)cc2)csc1NC(=O)c1nc(SC(C)C)ncc1Cl,-10%
2,O=C(c1cccs1)N1CCN(Cc2ccccn2)CC1,active: 52.5%
3,CCCc1nc(SCc2cc(=O)c3ccc(C)c(C)c3[nH]2)n[nH]1,-18.9%
4,CCC(C(=O)NCCc1ccccc1)n1nc(C)n2c(cc3sccc32)c1=O (stereo not given),-10.3%
5,COc1ccc(S(=O)(=O)N2CCN(Cc3nc4ccc(C)cc4o3)CC2)cc1Cl,3.25%
6,CCN(CC)CCNC(=O)c1ccc2c(=O)n3nc(Nc4ccccc4OC)sc3nc2c1,-6.28%
7,CCOc1ccc(-c2nc(CSCC(=O)NCc3ccc(Cl)cc3)c(C)o2)cc1,-9.87%
8,COc1cccc(CNC(=O)C2CCN(c3nnc(-n4c(C)ccc4C)s3)CC2)c1OC,5.66%
9,O=S1(=O)c2ccccc2N(Cc2cccc(Cl)c2)c2ccccc21,10.3%
10,CC(=O)c1cc2c(cc1N/C(=N/S(=O)(=O)c1ccc(C)cc1)c1ccc(F)cc1)OCO2,24.1%
11,COc1ccc(CCNC(=O)c2ccc3c(c2)ncn3-c2ccc(C)cc2C)cc1OC,-10.8%
12,CCc1ccc(S(=O)(=O)c2nnn3c2nc(NC(C)C)c2sccc23)cc1,4.13%
13,Cc1c(C(=O)N2CCN(c3ccccc3)CC2)sc2nc3n(c(=O)c12)CCC3,16.4%
14,COc1ccc(CCNC(=O)CS(=O)Cc2nc(-c3ccccc3F)oc2C)cc1OC (stereo not given),-15.7%
15,COc1cc(NC(=O)CSc2ncccc2C(=O)OC(C)C)cc(OC)c1,12.6%
16,Fc1cccc(CSc2ncnc3c2oc2ccccc23)c1,active: 30.5%
17,Cc1cc(C(=O)NCc2ccccc2Cl)c2c(C)nn(-c3ccccc3)c2n1,-1.06%
18,O=C(COC(=O)CCNS(=O)(=O)c1ccccc1)NC(=O)Cc1ccccc1,active: 36.6%
19,CCN1C(C(=O)c2ccccc2)=C(OC(=O)c2ccccc2OC)c2ccccc2S1(=O)=O,-2.21%
20,COc1ccc(OCCCC(=O)NNC(=O)CCN2CCN(c3ccccc3)CC2)cc1,active: 70.9%
21,CC(=O)c1ccc(N2CCN(S(=O)(=O)c3ccc4c(c3)C(C)(C)C(=O)N4)CC2)cc1,8.85%
22,Oc1ccccc1-c1nc(/C=C/c2ccc(F)cc2)nn1-c1ccccc1,-0.54%
23,CCCn1c2ccccc2c2cnn(CC(=O)N(CCCOC)Cc3ccco3)c(=O)c21,20.4%
24,COc1cccc(/C=C/C(=O)Nc2ccc3nc(N4CCN(C)CC4)cc(C)c3c2)c1OC,-4.42%

row,Structure (SMILES),inhibition
1,CCOc1ccc(NC(=O)CSc2ncc3c(n2)-c2ccccc2N(Cc2ccccc2C)S3(=O)=O)cc1,4.45%
2,O=C(NC1CCCC1)c1ccc(CSc2nc3cccnc3n2Cc2ccc(F)cc2)cc1,-3.5%
3,CC(C)c1nc2ccc(C(=O)NC(C)c3ccccc3)cc2o1 (stereo not given),14.1%
4,O=C(Nc1ccc(N2CCOCC2)cc1)c1ccc(Br)o1,active: 71.2%
5,CCc1ccccc1N1CC(c2nc3ccccc3n2CCCCOc2ccccc2)CC1=O (stereo not given),0.892%
6,Fc1ccc(Nc2nc3ccccc3s2)cc1,active: 32.8%
7,COc1cc(-c2nc3nc(C)cc(C)n3c2Nc2ccc(Cl)cc2)ccc1O,-11.1%
8,COc1ccc(C(=O)Nc2ccc(-c3nnc4n3CCCCC4)cc2)cc1OC,12.4%
9,COC(=O)c1cccc(-n2c(CCC(=O)O)ccc2-c2cccs2)c1,-21.4%
10,O=C(c1cc2ccc3cccnc3c2[nH]1)N1CCN(c2ccccc2)CC1,0.606%
11,COc1ccc(Cn2c(C(=O)O)c(CNCc3ccc(C)o3)c3ccc(C)cc32)cc1,2.45%
12,Cc1ccsc1C(=O)C1CCCN(Cc2cc(F)ccc2-n2cccn2)C1 (stereo not given),active: 34%
13,CC(=O)N1CCc2nc3sc(C(=O)Nc4ccc(Cl)cc4F)c(N)c3c(C(F)(F)F)c2C1,-4.82%
14,Cc1cc2oc(=O)cc(CSc3nnc(-c4cccs4)o3)c2cc1C(C)C,active: 36.4%
15,COc1ccc(CCNC(=O)C(=O)NCC(c2ccco2)S(=O)(=O)c2cccs2)cc1OC (stereo not given),-10.2%
16,CCC(=O)N1CCc2cc(S(=O)(=O)NC(CC(C)C)C(=O)NCCc3ccccc3)ccc21 (stereo not given),-12.6%
17,O=C(c1nc(-c2ccc(Cl)cc2)n2c1CCCCC2)N1CCN(c2ccccc2)CC1,-7.71%
18,CCOC(=O)c1c(-c2ccccc2)oc2ccc(N(C(C)=O)S(=O)(=O)c3ccc(CC)cc3)cc12,-10.1%
19,OC(CCN1CCCCC1)(c1ccccc1)C1CCCCC1 (stereo not given),active: 46.4%
20,O=C(COc1ccccc1-c1nc(-c2ccccc2)no1)Nc1cccc([N+](=O)[O-])c1,-17.3%
21,O=C(COc1ccc(Cl)cc1)Nc1ccc2nc(SCC(=O)N3CCCC3)sc2c1,-0.474%
22,Cc1nn(C(=O)c2cccc(Cl)c2)c(C)c1S(=O)(=O)N1CCOCC1,14.1%
23,CCn1c(=O)cc(SCC(=O)NCc2ccc(OC)cc2OC)c2ccccc21,0.211%
